# Test results as given in PubChem BioAssay AID1347073 (National Center for Advancing Translational Sciences (NCATS), 2019).
# The campaign covered roughly 45,000 compounds. About 200 (0.44%) were called active. Not shown: some 7% with an inconclusive outcome. Calls come from the whole dose curve; as a rule, active = well fitted activation curve with a large enough effect; inconclusive = small, poorly fitted or top-dose-only effect; inactive = no such curve, though single readings can be large or run the other way. The list shows a part of the results.
# Assay: qHTS of TDP-43 Inhibitors: NCGC Sytravon Library Screen; note: 0% is about no effect; nearly all actives have a fitted effect of over 55% in size
# Conditions: yeast TDP-43 toxicity rescue, BacTiter-Glo growth, 24 h; series mostly up to 46.1 µM; growth rescue (activation): at the top concentration
# From the text: The goal of this project is to identify new chemical probes capable of reversing the toxicity associated with TDP-43 which is associated with frontotemporal lobar degeneration and amyotrophic lateral sclerosis. These compounds will provide a complementary approach to deciphering the tangled mechanisms of toxicity and protection that we have uncovered through genome-wide genetic screens and are beginning to uncover in a large-scale proteomics analysis with mass spectroscopy. To this end, a miniaturized assay was developed to be screened against the Molecular Libraries Small Molecule Repository (MLSMR) to discover TDP-43 inhibitors. Please note that in the set-up this yeast-based assay compounds that inhibit as TDP-43, have a read-out as activators. NIH Chemical Genomics Center [NCGC] NIH Molecular Libraries Probe Centers Network [MLPCN] Assay Submitter (PI): Susan Lindquist, Whitehead Institute/MIT MLPCN Grant: R21 NS060957
# Dispense 2.5 microL yeast galactose medium per 1536-well plate, pin compound, dispense 2.5 microL TDP-43 expressing yeast in galactose medium at OD600=0.02 (pregrown in raffinose medium to mid-log phase) per well, incubate for 24 hr at 30 deg C, and cell growth will be measured using 5 microL of Bactiter/Glo reagent to entire plate and read using Luminescence Protocol in ViewLux.
row,SMILES,growth rescue (activation)
1,COc1ccc(CCNC(=O)c2cc(=O)c3ccc(C)cc3o2)cc1OC,inactive: 10.6%
2,Cc1ccc(C(=O)N2CCN(S(=O)(=O)c3ccc(C)cc3)CC2)cc1,inactive: 9.44%
3,COc1ccc(C(=O)Nc2ccc3oc(-c4cccnc4)nc3c2)cc1OC,inactive: 5.86%
4,CC(OC(=O)c1cccc(S(=O)(=O)Nc2ccccc2F)c1)C(=O)NCc1ccc2c(c1)OCO2 (configuration not stated),inactive: -5.25%
5,CCCCN(CC)C(=O)Cc1ccc(Br)cc1,inactive: 28%
6,Cc1ccccc1NC(=O)c1ccccc1NC(=O)c1cccs1,inactive: 9.55%
7,CN(c1ccccc1)c1ccc(/C=C/[N+](=O)[O-])cc1,inactive: -92%
8,COc1cc(C(=O)OCCNC(=O)c2cccnc2)cc(OC)c1OC,inactive: 14%
9,CC(C)(C)CN1CCNC(=O)C1CC(=O)NCc1cccc(-n2cccn2)c1 (configuration not stated),inactive: 2.33%
10,Cc1[nH]c(=O)[nH]c(=O)c1S(=O)(=O)N1CCCC(C(=O)N2CCN(c3cccc(C(F)(F)F)c3)CC2)C1 (configuration not stated),inactive: 13.2%
11,CCOc1ccc(NC(=O)Cc2ccccc2)cc1,inactive: 10.8%
12,O=C(/C=C/c1ccccc1Cl)NCCc1ccc(F)cc1,inactive: 1.56%
13,Cc1occc1C(=O)NNC(=O)c1nn(C)c(=O)c2ccccc12,inactive: -4.3%
14,Cc1cc(Br)cc2c1N(Cc1ccccc1OC(C)C)C(=O)C2=O,inactive: -92.3%
15,COc1ccc2oc(=O)c(C(=O)N3CCN(C(=O)c4ccccc4)CC3)cc2c1,inactive: 8.09%
16,O=C(CC(=O)Nc1ccccc1F)Nc1ccccc1F,inactive: 16.8%
17,COc1cc(C2C3=C(CC(C)(C)CC3=O)N(C)C3=C2C(=O)CC(C)(C)C3)ccc1O,inactive: 10.2%
18,COc1ccc(CC(=O)Oc2cc(C)ccc2C)cc1,inactive: 19.6%
19,O=C(CN1C(=O)c2ccccc2C1=O)OCC(=O)N1CCCCC1,inactive: -3.43%
20,COc1cccc(C(=O)NCCCN2CCN(CCCNC(=O)c3cccc(OC)c3)CC2)c1,inactive: 0.0888%
21,CC(C)C(CCNCc1ccccn1)c1ccc(Cl)cc1 (configuration not stated),inactive: -12%
22,O=[N+]([O-])c1ccc(NC(=S)NCc2ccncc2)cc1,inactive: -2.59%
23,CC(C)(C)C(=O)Nc1ccccc1C(=O)Nc1cccnc1,inactive: -21.8%

row,SMILES,growth rescue (activation)
1,O=C(NCc1ccccn1)C1CCN(Cc2cccc(OCc3ccccc3)c2)CC1,inactive: 3.28%
2,CC(=O)Oc1ccc2c(=O)c(N3C(=O)c4ccccc4C3=O)c(C)oc2c1,inactive: -12.4%
3,O=C(COC(=O)COc1ccc(Br)cc1)NCc1ccc2c(c1)OCO2,inactive: -9.66%
4,O=C(COC(=O)Cn1cnc2ccccc2c1=O)Nc1cc(Cl)ccc1[N+](=O)[O-],inactive: 14.4%
5,CCOc1ccc(Br)cc1S(=O)(=O)Nc1ccc(C(=O)OC(C)C(=O)N(C)c2ccccc2)cc1 (configuration not stated),inactive: 16.3%
6,NC(=O)C1CCN(C2=C(NS(=O)(=O)c3ccccc3)C(=O)c3ccccc3C2=O)CC1,inactive: -8.06%
7,CNC(=O)C(=O)N/N=C/c1ccccn1,inactive: -0.0062%
8,Cc1nnc(NC(=O)C2CC(=O)N(c3ccccc3)C2)s1 (configuration not stated),inactive: -2.53%
9,COc1ccc(C(CNc2ccc(S(C)(=O)=O)cc2[N+](=O)[O-])N(C)C)cc1OC (configuration not stated),inactive: -19.7%
10,CCn1c(SCC(=O)Nc2nccs2)nnc1-c1cc2cccc(OC)c2o1,inactive: 11.1%
11,Cn1c(CN2CCCC(C(=O)c3ccc4c(c3)OCO4)C2)nc2ccccc21 (configuration not stated),inactive: 9.54%
12,CC(=O)Nc1ccc(NC(=O)C2CCCN2C(=O)Nc2ccccc2[N+](=O)[O-])cc1 (configuration not stated),inactive: 12.3%
13,CC(Oc1ccccc1)C(=O)NNC(=O)c1cccs1 (configuration not stated),inactive: 8.99%
14,COC(=O)C1=C(C(=O)OC)C(c2cc(Br)ccc2O)c2sc(=O)[nH]c2S1 (configuration not stated),inactive: 17.2%
15,CC(C)(C)NC(=O)NC(=O)CN1c2cccc3cccc(c23)S1(=O)=O,inactive: 11.4%
16,O=S1(=O)CCN2C(Cc3ccc(SC(F)F)cc3)=CSC2=N1,inactive: 4.61%
17,CCOc1ccc(N2C(=O)CN(CC(=O)OC)C2=S)cc1,inactive: 0.872%
18,COC(=O)/C=C1/SC(=NC(=O)c2ccc(Cl)cc2)NC1=O,inactive: 27.7%
19,O=C(NNc1c2ccccc2nc2ccccc12)c1ccc(Cl)cc1,inactive: 0.0729%
20,CCOc1ccc(S(=O)(=O)NCc2ccccn2)cc1NC(=O)c1ccccc1F,inactive: 8.66%
21,CC(=O)c1cccc(NC(=O)C2CCN(C(=O)c3ccccc3Cl)CC2)c1,inactive: -32.9%
22,O=C(O)CC1=C(c2ccc(F)cc2)CCC1=O,inactive: 5.06%
23,C/C(N)=C(/C#N)C(=O)COC(=O)c1cc(-c2cccc(Br)c2)nc2ccccc12,inactive: -0.539%

row,SMILES,growth rescue (activation)
1,Cc1cnc(C(=O)N2CCCC(C(=O)c3ccc(C(F)(F)F)cc3)C2)cn1 (configuration not stated),inactive: -0.0568%
2,CC(NC(=O)C12CC3CC(CC(C3)C1)C2)c1ccc(F)cc1 (configuration not stated),inactive: -32.2%
3,COc1cccc(/C=C2\Oc3cc(OC(=O)N4CCOCC4)ccc3C2=O)c1,inactive: 7.1%
4,O=C(CCCCCn1c(=O)[nH]c2ccsc2c1=O)NCc1ccc(F)cc1,inactive: -9.68%
5,CC(=O)Nc1ccc(S(=O)(=O)N2CCC(N3CCCCC3)CC2)cc1,inactive: 1.25%
6,CC(C)OC(=O)NCCOC(=O)Nc1ccc(Cl)cc1,inactive: 4.86%
7,CN(C)S(=O)(=O)c1ccc(Cl)c(C(=O)Nc2ccc(S(=O)(=O)N3CCOCC3)cc2)c1,inactive: 10.1%
8,OCCN1CCN(c2cnc(-c3ccsc3)cn2)CC1,inactive: 7.94%
9,CSc1nc(C(C)C)ccc1CNC(=O)CC(C)c1ccccc1 (configuration not stated),inactive: -3.68%
10,Cc1cc(NC(=O)c2ccc(Br)o2)ccc1NC(=O)c1ccco1,inactive: -36%
11,COCCN(C(=O)C(=O)NC1CCCC1)C(C(=O)NC1CCCC1)c1ccccc1F (configuration not stated),inactive: 6.19%
12,CC(C)N(C(=O)CSc1nn2c(=O)c(C(C)(C)C)nnc2s1)c1ccccc1,inactive: 17.1%
13,Nc1c2c(nc3ccn(Cc4ccccc4)c(=O)c13)CCC2,inactive: 26.8%
14,CCOC(=O)C(NC(C)=O)(OCc1ccccc1)C(F)(F)F (configuration not stated),inactive: 18.6%
15,CC(=O)c1ccc(Nc2nc(C(N)Cc3ccc(Cl)cc3)cs2)cc1 (configuration not stated),inactive: -1.18%
16,CCn1cc(CNC(=O)c2ccc(OC3CCN(Cc4ccccn4)CC3)cc2)cn1,inactive: -20.7%
17,Cc1cc(C)nc(SCc2ccc(C(=O)NNC(=O)Nc3cccc(Cl)c3)cc2)n1,inactive: -14.8%
18,N#Cc1nc(-c2ccc(OCc3ccc(Cl)cc3)cc2)oc1NCCCn1ccnc1,inactive: -17%
19,O=C(COC(=O)C1=NN(c2ccccc2)C(=O)CC1)Nc1nc(-c2ccc(F)cc2)cs1,inactive: -9.07%
20,O=C(NCCN1CCNC1=O)c1ccc2sc([C@@H]3O[C@H](CO)[C@H](O)[C@H](O)[C@H]3O)nc2c1,inactive: 0.88%
21,CCN(c1ccccc1)S(=O)(=O)c1cc(C(=O)Nc2cccc(Cl)c2)ccc1F,inactive: 18.1%
